# Results published in PubChem BioAssay AID686978 (National Center for Advancing Translational Sciences (NCATS), 2013).
# Where “and” joins values, the source holds several entries; their conditions need not be identical. Equal values may be shown once. Out of some 420,000 compounds screened, about 64,000 (15%) were called active. Inconclusive results, whose numbers are uncertain, are shown with a selection of clear calls. Calls come from the whole dose curve; as a rule, active = well fitted inhibition curve with a large enough effect; inconclusive = small, poorly fitted or top-dose-only effect; inactive = flat fitted curve, though single readings scatter. No potency is given beside an inconclusive call; the fits are too rough.
# Experiment: qHTS for Inhibitors of human tyrosyl-DNA phosphodiesterase 1 (TDP1): qHTS in cells in absence of CPT; note: nearly all actives have a fitted effect of over 55% in size
# Conditions: DT40 Tdp1-/- hTDP1 cells, no CPT, ATP luminescence, 48 h; activity change, negative = growth inhibition: at 46.2 µM (top of the series) unless noted
# Summary of the method: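 Readout: luminescence from CellTiter-Glo after 30 min in the dark at RT. Cells: DT40 Tdp1-/- with stable hTDP1, 400/well. Exposure: compounds alone, ≥48 hr, 37 °C.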
# % is set by controls: 0 for no effect and ±100 for the full control effect; potency is the fitted concentration of half-maximal effect; tags give direction and shape of the fitted curve.
Structure (SMILES),Potency,"activity change, negative = growth inhibition"
O=C(O)c1[nH]n(-c2ccc(S(=O)(=O)O)cc2)c(=O)c1N=Nc1ccc(S(=O)(=O)O)cc1,"inconclusive [inhibitor, full curve, poor fit]",
CCOC(=O)[C@]12Cc3cc(OC)ccc3[C@H]1N(C1CCCCC1)C(=O)c1ccccc12,active: 2.31 µM,
O=C(Cn1c(=O)nc(-c2ccccc2)c2cc(Cl)ccc21)NCc1ccccc1,active: 16.4 µM,
COc1ccc(-n2c(O)c(/C=C3\C=Nc4ccc(Br)cc43)c(=O)[nH]c2=O)c(OC)c1,"inconclusive [inhibitor, single point]",
COc1ccccc1-n1c(-c2ccccc2F)nc2ccccc2c1=O,"inconclusive [inhibitor, single point]",
CC(N)C(=O)NC1C2C(=C(O)CC(O)C2O)C(=O)OC1(C)C(Cl)Cl (centres undefined),active: 0.164 µM,
O=C1CCCN1CC#CCN1CCCC1,inactive,
CCOc1ccc(CN(CCc2ccc3c(c2)OCO3)Cc2ccc(C)cc2)cc1,"inconclusive [inhibitor, single point]",
O[C@@H]1CCCC[C@H]1N1CCC(c2ccccc2)CC1,,inactive: -0.779%
CCOc1ccc(N=C(C)Nc2ccc(OCC)cc2)cc1,"inconclusive [inhibitor, single point]",
COc1ccc2c(c1OC)C(=O)O[C@@H]2C1c2cc3c(cc2CCN1C)OCO3 (some centres undefined),,inactive: -12.5%
CN(C)CCN=Cc1c(O)n(CCC2=CCCCC2)c(=O)[nH]c1=O,,inactive: 13.8%
N#Cc1cccc(NC(=O)N2CC3(CCN(C(=O)Oc4ccccc4)CC3)C2)c1,"inconclusive [inhibitor, single point]",
OC(c1ccccc1)(c1ccccc1)c1ccncc1,"inconclusive [inhibitor, single point]",
COC(=O)N(c1ccccc1)P1(=S)OCCO1,"inconclusive [inhibitor, single point]",
C[C@H]1O[C@@H](O[C@H]2[C@@H](O)C[C@@H](O[C@H]3[C@@H](O)C[C@H](O[C@H]4CC[C@@]5(C)[C@H](CC[C@@H]6[C@@H]5CC[C@]5(C)[C@@H](C7=CC(=O)OC7)CC[C@]65O)C4)O[C@@H]3C)O[C@@H]2C)C[C@H](O)[C@@H]1O,active: 0.112 µM,
Cc1[nH]c2ccccc2c1C1=CCNCC1,"inconclusive [inhibitor, single point]",
CCN(CC)C(C)C(=O)c1ccccc1 (centres undefined),,inactive: 3.53%
O=C(c1ccccc1)c1cn(CC(=O)N2CCOCC2)c2ccccc12,"inconclusive [inhibitor, single point]",
Cc1cccc(-n2nc(C)c3c2NC(=O)CSC3c2ccccc2Cl)c1 (centres undefined),active: 20.6 µM,
Cc1cc(C(=O)CS(=O)(=O)c2ccccc2)cc(C)c1OC(=O)N(C)C,active: 18.4 µM,
CC(C)c1nc2oc3c(NCc4ccccn4)ncnc3c2c2c1COC(C)(C)C2,"inconclusive [inhibitor, single point]",
O=C1OC(c2ccc(Br)cc2)=N/C1=C\N1CC2CC(C1)c1cccc(=O)n1C2 (centres undefined),"inconclusive [inhibitor, partial curve]",

Structure (SMILES),Potency,"activity change, negative = growth inhibition"
CC(C)N1C(=O)/C(=C/C=C/c2ccco2)C(=O)N(Cc2ccco2)C1=O,active: 14.6 µM,
COc1cccc(CCNCc2ccc(SC)cc2)c1,"inconclusive [inhibitor, partial curve]",
CN1CCc2nc(SCC(=O)OC(C)(C)C)c(C#N)cc2C1,"inconclusive [inhibitor, single point]",
COc1ccccc1-n1c(O)c(C=NC2CC2)c(=O)[nH]c1=O,,inactive: 5.7%
O=c1c2ccccc2nc(CNCc2ccco2)n1-c1ccc(F)cc1,,inconclusive: -43.7% [inhibitor]
CCOc1cc2c(cc1OCC)-n1cccc1C(c1cccc(F)c1)NC2 (centres undefined),"inconclusive [inhibitor, partial curve]",
O=c1c2ccccc2nc(CSc2ncnc3nc[nH]c23)n1-c1ccccc1Cl,"inconclusive [inhibitor, single point]",
COC(=O)C1=C(c2c(C)noc2C)C[C@@H]2CC[C@H]1N2C(=O)NC1Cc2ccccc2C1,,inactive: -12.7%
CC(C)NS(=O)(=O)c1ccc2c(c1)oc(=O)n2C,"inconclusive [inhibitor, full curve, poor fit]",
Oc1cc(Cl)c(Cl)c(Cl)c1,"inconclusive [inhibitor, single point]",
CC1CC(C)CC(C)C(O)C(C#N)=CC=CCC(C2CCCC2C(=O)O)OC(=O)CC(O)C(C)C1 (centres undefined),active: 0.103 µM,
CN1CC(C(=O)c2ccccc2)C(C(=O)c2ccccc2)C1 (centres undefined),"inconclusive [inhibitor, single point]",
O=C1NC(=S)NC(=O)C1=Cc1ccc2c(c1)CCN2CCCCl,active: 14.6 µM,
Cc1cccc(NC(=O)OC2CN3CCC2CC3)c1 (centres undefined),,inactive: -16%
Cc1cccc(N2CCN(C(=O)c3ccc(CNc4c(N5CCC(C)CC5)c(=O)c4=O)cc3)CC2)c1C,active: 16.4 µM,
CC(C)n1cnc2c(C(=O)N[C@H]3CN4CCC3CC4)cc(Cl)cc21,"inconclusive [inhibitor, partial curve, poor fit]",
COc1cc2[nH]c(=S)n(-c3ccccc3)c(=O)c2cc1OC,,inactive: 7.83%
COC(=O)c1c(C)[nH]c(C(=O)C(C)[N+]23CCN(CC2)CC3)c1C (centres undefined),,inactive: -1.25%
CCN(CC)C(=O)[C@H]1C[C@H](CC(=O)NCC23CC4CC(CC(C4)C2)C3)C(=O)N2CCc3c([nH]c4cc(-c5ccco5)ccc34)[C@]12C,"inconclusive [inhibitor, single point]",
CCS(=O)(=O)NCc1nnc2n1-c1ccc(Br)cc1C(c1ccccc1Cl)=NC2,,inactive: -10.6%
O=C1NCN(c2ccccc2)C12CCN(C(c1cccs1)c1nnnn1C1CCCCC1)CC2 (centres undefined),active: 16.4 µM,
O=[N+]([O-])c1ccc(C2C3C(c4ccccc4)=NC4(CCCCC4)N32)cc1 (centres undefined),"inconclusive [inhibitor, partial curve]",
O=c1c2ccccc2nc(/C=C/c2cccnc2)n1Cc1ccccc1,active: 23.1 µM,

Structure (SMILES),Potency,"activity change, negative = growth inhibition"
C/C(=N\NC(=O)c1ccncc1)c1c(O)n(Cc2ccccc2)c(=O)[nH]c1=O,,inconclusive: -33% [inhibitor]
CC(=O)N1CC2CC(C1)c1cccc(=O)n1C2 (centres undefined),,inactive: -1.64%
CCC(c1nnnn1-c1ccc(OC)cc1)N1CCC(n2c(=O)[nH]c3ccccc32)CC1 (centres undefined),"inconclusive [inhibitor, single point]",
CCOC(=O)c1c(-c2ccccc2)oc2ccc(OC(=O)N(C)C)cc12,"inconclusive [inhibitor, single point]",
Cc1ccccc1N1C(=O)NC(=O)/C(=C\c2ccc3c(c2)CCCN3Cc2ccccc2)C1=O,"inconclusive [inhibitor, single point]",
CN1Cc2cnnn2-c2ccccc2C1C#N (centres undefined),"inconclusive [inhibitor, single point]",
CC(C)(O)[C@@H]1[C@H]2OC(=O)[C@@H]1[C@]1(O)C[C@H]3O[C@]34C(=O)O[C@H]2[C@@]14C (tested in a mixture with another compound),,inactive: 1.08%
CC(C)(C)c1ccc(C(=O)Nc2ccc3nc(SCC(=O)N4CCCC4)sc3c2)cc1,active: 4.11 µM,
COc1ccc(C2SCC(=O)Nc3c2c(C)nn3-c2ccccc2)cc1 (centres undefined),"inconclusive [inhibitor, partial curve, poor fit]",
COc1cc(/C=C2\C(=O)NC(=O)N(c3ccccc3)C2=O)cc(OC)c1O,,inactive: 5.89%
CC(=O)N1CCN(c2ccc(N=Cc3c(O)n(Cc4ccccc4)c(=O)[nH]c3=O)cc2)CC1,"inconclusive [inhibitor, partial curve]",
Cc1cccc(N2C(=O)NC(=O)/C(=C\c3cnc(-c4ccccc4)nc3)C2=O)c1,"inconclusive [inhibitor, single point]",
CSCCC(c1nnnn1C1CCCC1)N1CCC2(CC1)C(=O)NCN2c1ccccc1 (centres undefined),"inconclusive [inhibitor, single point]",
O=C1NC(=S)NC(=O)C1=Cc1ccc(OCc2ccccc2)cc1,"inconclusive [inhibitor, single point]",
CCOc1ccc(NCc2cccn2-c2nnc(N3CCC(C(=O)NC(C)c4ccccc4)CC3)s2)cc1 (centres undefined),active: 8.2 µM,
O=C1NCN(c2ccccc2)C12CCN(C(c1ccnc3ccccc13)c1nnnn1C1CCCCC1)CC2 (centres undefined),"inconclusive [inhibitor, single point]",
O=C(O)[C@@H]1Cc2[nH]cnc2C(c2cccnc2)N1 (some centres undefined),,inactive: 3.53% [at 9.04 µM]
NCC(O)c1cccc(O)c1 (centres undefined),"inconclusive [inhibitor, full curve, poor fit]",
CC[C@@H](O)C(C[C@@H](C)N(C)C)(c1ccccc1)c1ccccc1,"inconclusive [inhibitor, single point]",
O=C1/C(=C\c2cc3c(cc2Br)OCO3)N2CCC1CC2,"inconclusive [inhibitor, single point]",
CCCCCCC(=O)N/N=C/c1c(O)n(CCCC)c(=S)[nH]c1=O,active: 18.4 µM,
Oc1cc(Cl)ccc1Oc1ccc(Cl)cc1Cl,active: 4.86 µM and active: 23.1 µM,
Cc1ccc(-c2cc(-c3ccc(C)cc3)[n+](-c3ccccc3)c(-c3ccc(C)cc3)c2)cc1,active: 0.366 µM,
